# In the supplement of paper PMC11417369:
# Some of the results follow.
# Test system: PfAP2-HC AP2 domain (GST-tagged)
# Assay: gcPBM binding intensity (ln(normalized median fluorescence intensity)); higher = stronger DNA binding
# Outline: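 The binding buffer was 1× PBS containing 1% milk, 0.2 mg/ml BSA, 0.5% salmon testes DNA and 0.03% Triton X-100. In it, GST-tagged P. falciparum DNA-binding domains expressed in E. coli were applied for 1 h to an Agilent 4 × 180k array of primer-extended double-stranded 36-bp intergenic genomic probes plus negative controls. Binding intensity, read with Alexa488 anti-GST antibody and a 488 nm scan, is the highest Masliner-normalised natural-log median intensity across replicate spots of either probe orientation.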
row,Sequence,gcPBM binding intensity (ln)
1,AAAATTAAACATACATCACACATGCATTATATTATG [CACACA_site5517],9.8
2,AAAATTAACGAGTGCACACATATTTAGATAAAATAC [CACACA_site2936],10.3
3,TTAAACGTACATAATACACACACATGTAGACATATA [CACACA_site8635],10
4,AAATAAGAGCGTAGCACACACGCATTTTATAAATGG [CACACA_site4571],10.3
5,TCATATAAGTTTAGTAGTACTAAAAGTTAGAGAGAA [XGTACX_site3430],9.91
6,AATGAAGACTTTTTTACACACTTCATATCTTATAGA [CACACA_site7046],9.7
7,AGCCACAATACGGAAACACACAAGTTATTTTATCAT [CACACA_site2724],9.87
8,TTTTTATGAATTCTTTTGTTAATAATAATATGTTGT [TGCATGCA_negctrl_site198],9.61
9,AAATTTTTTCCGATTTGTACTTATATTTCTTTATTA [XGTACX_site1762],9.89
10,AATATTTTTAATTAATGTACATATTTATTATATAAA [XGTACX_site5112],9.45
11,ATATATATATATGTACACATATATGTGTTTGTTTTT [GTGCAC_negctrl_site5],10.2
12,CTATTACAAAGAAATTGTACATATATATATAAAAAC [XGTACX_site8800],9.59
13,ATCTTTCAATAATTCACACATATATATATATATATA [CACACA_site4598],9.8
14,ATAATATATATATTTTGTACACATGAAAAGGAGGAT [XGTACX_site5034],9.9
15,TAAATAAATTTATGTACACACACAAATAAATACATA [CACACA_site5107],10
16,AAAAAAAAGAAAAACACACACATATTTATTTATAAC [CACACA_site6600],10.2
17,TATATATTAAATTATAGTACACATTATATATAATTA [XGTACX_site4841],9.54
18,ATAATATATGTATGTATGCACTTTTATTATTTTTTT,9.9
19,TATATATATATATATAGTACACATATCACATAAATG [XGTACX_site6379],9.77

row,Sequence,gcPBM binding intensity (ln)
1,TTATTTTTATTATAAATTATAAAATATAAATAAATA [GTGCAC_negctrl_site616],9.18
2,TAAATCCGCACGCACACACACATATTAATAAAAAAA [CACACA_site7800],10.5
3,ATATATTATATATATAGTACGTATATAAATTTAATT [XGTACX_site5041],9.61
4,CATGAATTTTTTTAATGTACATTCACATCATAAAAA [XGTACX_site7475],9.35
5,TCTTCTTAACCAACTATGAAAAGGAAAAATATAACA [GTGCAC_negctrl_site565],9.3
6,GAAACTATGTAATGCACACCAAAATAAAATTATTAA [CACACA_site1904],9.66
7,ATTATAAAAAAGAAACGTACATATTTATTGTTTTTT [XGTACX_site2161],9.58
8,TATATAAATATACACCCACACACATATATATATATA [CACACA_site9247],10.1
9,TATATATATAACATATGTACATATATTTATAAATAC [XGTACX_site5484],9.81
10,AATAATTTAATACATACACACGTATATCTTTTTTTT [CACACA_site8632],9.83
11,ATCGTAGTATAATATGAACACACACCCACCCACAAA [CACACA_site8616],10.2
12,TATATTCCACTCATTGATTTTCTCTTCTCACAAAAA [CACACA_negctrl_site1016],9.47
13,TATAAAAAAAAATGTGGTACATATTTCCATTTTCCA [XGTACX_site4571],9.69
14,TATAATAATACTTATTGTACTATTAGTTTAATTCAT [XGTACX_site6638],9.61
15,TACTATTATTATTGCACACTTATTATCCCTCGGATA [CACACA_site162],9.73
16,AATATATATTAATACACACACACATATATATATATA [CACACA_site3786],10.3
17,TGATCATAGAAACACACACACAAAAAAAAAAAAAAA [CACACA_site4008],10.1
18,TTTTAATTAGTACAAACACACATATACAGACAAAAA [CACACA_site2563],10.1
19,AGACGATAAATCATTCATTCATTTACCATCCAAAAA [CACACA_negctrl_site802],9.41

row,Sequence,gcPBM binding intensity (ln)
1,TAATATAGAAAATGCATACACACTTTATATATATAT [CACACA_site911],9.73
2,CTTTTTAATGAATACACACACACACCGATATATATA [CACACA_site5296],10.7
3,AAATATTATTGACGATGTACTTCTATTCATAAGTAT [XGTACX_site3964],9.61
4,GAATAATATGGACATACACACATATACATACCTATA [CACACA_site7075],9.93
5,TAAAACTTATACAAATGTACAAATATATATATATAT [XGTACX_site4661],9.53
6,AAAATTTTTTTTGGCGCACACTAATAATAAAATATA [CACACA_site470],9.64
7,AAGAGAGAGAAATATGCACACATAAGGGAAATAAAT [CACACA_site8300],9.92
8,TATATATGTATGTATGTACACACAAAAAATGGAATA [CACACA_site9235],10.2
9,TTCTTTTTTATTTATACATGCAATAAAAAATTGATT [TGCATGCA_site730],9.61
10,TTTTTTTAAAACAAAAAAAAAAAAAAAAAAAAAAAA [TGCATGCA_negctrl_site418],8.22
11,TTGATAAAATCACTGGTGCATGTAGATATATAATAT,9.66
12,AATAAACATTATTTTCGTATTCCAATTCTTTTTTTT [XGTACX_negctrl_site374],9.64
13,AAAAAAAAAAGAAAAAGTACATACATACATATATAT [XGTACX_site6405],9.66
14,TTATTATTAGAAAAAAGTACACATATAAAATGTTAC [XGTACX_site6426],9.55
15,GGATACATATGTAAAAGTACACATGAATATATACAT [XGTACX_site6469],9.76
16,GTAAAATTAAAAATAACACACAAAAAAAAAAAAAAA [CACACA_site800],9.85
17,AATAATATTGAAATGTGTACGTATTTATATTTTATG [XGTACX_site8252],9.72
18,TTTTGTTATATTCAATATTTATATATTATAAATATA [CACACA_negctrl_site1705],9.46
